In all, about 33,000 sequences were measured (“E-score (-0.5 to 0.5)”: median about -0.016, highest 2% from about 0.32 on). The list shows a part of the results.
biological target: T1, Stp1 (UniProt B3LFK1); test: PBM E-score (8-mer binding enrichment) (E-score (-0.5 to 0.5)); higher = stronger / more preferred TF binding; most listed sequences are background and not binding sites; conditions: protein concentration: 200 nM; construct: GST-full length
T1 sequence: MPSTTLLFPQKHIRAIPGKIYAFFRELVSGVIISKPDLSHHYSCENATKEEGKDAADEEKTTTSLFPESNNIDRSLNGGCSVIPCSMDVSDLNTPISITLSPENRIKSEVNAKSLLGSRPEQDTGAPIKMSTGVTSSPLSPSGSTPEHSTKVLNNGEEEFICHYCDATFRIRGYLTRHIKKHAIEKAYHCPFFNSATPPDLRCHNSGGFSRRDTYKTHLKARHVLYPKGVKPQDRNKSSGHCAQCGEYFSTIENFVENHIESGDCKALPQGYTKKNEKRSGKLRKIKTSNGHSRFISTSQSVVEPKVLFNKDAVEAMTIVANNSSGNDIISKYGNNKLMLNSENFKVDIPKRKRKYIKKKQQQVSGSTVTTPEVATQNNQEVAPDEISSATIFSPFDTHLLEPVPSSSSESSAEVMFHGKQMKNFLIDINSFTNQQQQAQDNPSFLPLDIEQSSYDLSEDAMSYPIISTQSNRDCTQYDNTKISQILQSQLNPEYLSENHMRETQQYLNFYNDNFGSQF
Summary of the method: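 Yeast transcription factors, full-length or as DNA-binding domains, were expressed with a GST tag using PURExpress in vitro transcription/translation. At about 100-200 nM they were applied to universal all-10-mer Agilent arrays, double-stranded by primer extension on fresh or once-stripped slides. Fluorescent anti-GST detected bound protein, and masliner normalised the scans. E-scores for ungapped eight-base words, pooled with reverse complements, came from the Universal PBM Analysis Suite.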

| Sequence | PBM E-score |
| --- | --- |
| AGGTAACC | 0.0194 |
| CGGATTCC | -0.00648 |
| GCACGTGC | 0.352 |
| GCTGGAAC | -0.269 |
| ACACCAAA | 0.267 |
| AATCTCAT | 0.0525 |
| CTAGGGGA | -0.364 |
| CAGTCACA | -0.175 |
| TATTACAA | 0.0376 |
| ATGCGGTA | 0.0546 |
| ACAACGAG | 0.058 |
| CCGTCTGC | 0.208 |
| AGCCAAAT | 0.0771 |
| AAATGTCG | -0.0524 |
| GACACTGC | 0.0467 |
| CCATAACC | -0.0998 |
| TCGTCGCA | 0.0795 |
| AACGAACT | -0.0533 |
| CGGAAAGA | -0.0459 |
| GAGCTGCC | -0.156 |
| CCAAACTA | -0.0843 |
| ACTCACGA | -0.149 |

| Sequence | PBM E-score |
| --- | --- |
| ATTTTTAG | -0.0417 |
| CACAATCC | -0.0187 |
| AAGGAGCA | -0.0841 |
| CTCGACAG | -0.225 |
| CTGGTGTC | -0.112 |
| AGCAACGG | 0.239 |
| TGATCACA | -0.056 |
| GGAGTTCA | -0.191 |
| AGCAATGA | 0.131 |
| CTGGGGGC | -0.412 |
| ACGATAGT | 0.00769 |
| ATGAGGCG | 0.35 |
| ATCGGTTG | 0.0446 |
| AGCCAGGC | -0.101 |
| TAGAACTA | 0.0567 |
| CGGCAATA | 0.352 |
| CCTACGTA | -0.0626 |
| AAATGGCG | 0.235 |
| CTGGATCA | -0.249 |
| CGAATTCA | 0.21 |
| ATTGAAAC | 0.174 |
| TCCGCTCA | -0.102 |

| Sequence | PBM E-score |
| --- | --- |
| CACTCGTA | -0.0702 |
| GGGTTACA | 0.188 |
| ACGTATTA | 0.227 |
| GGAATTGA | 0.0238 |
| ACTAATGA | 0.0327 |
| GAGGGTAC | -0.22 |
| AGGTGATC | -0.144 |
| ACGTCCAT | -0.117 |
| ATCCTACC | -0.202 |
| CTCGCAGA | -0.138 |
| AGCCGGTG | 0.0208 |
| CAGCAGGC | 0.0171 |
| CGGACTAC | 0.00117 |
| ACTTAGAG | -0.19 |
| AGCGCAGG | -0.296 |
| ACAGTCTC | -0.295 |
| CGATCACG | 0.145 |
| CGGCCACG | 0.168 |
| CGCGAAGC | 0.129 |
| CAGGATTC | -0.173 |
| GCACCTTA | 0.063 |
| ACTATGTG | 0.00594 |

| Sequence | PBM E-score |
| --- | --- |
| ATTACTGG | 0.0241 |
| GGGTGTAC | -0.248 |
| ACCTGACA | -0.0993 |
| AGTACATG | -0.015 |
| GTAGTCGA | -0.0735 |
| AAGCATGT | 0.00739 |
| GATAAAGC | 0.142 |
| ACTTCCGG | -0.00566 |
| CAGCGGTC | -0.262 |
| ACCTGAAA | 0.0529 |
| AAGGGAGC | -0.262 |
| CCGGATCC | -0.15 |
| CCCAGTCA | -0.288 |
| ACTCAAAG | -0.0443 |
| AACAAACT | 0.23 |
| CCACCCGG | -0.218 |
| CAAACGAA | 0.116 |
| AGTGGTCA | -0.0977 |
| ATGAGGTC | -0.273 |
| AAGCGTGA | 0.0531 |
| CCGGATGA | -0.156 |
| AGCAAGCC | -0.114 |

| Sequence | PBM E-score |
| --- | --- |
| CTCAGCGA | -0.129 |
| CCTCGACC | -0.183 |
| CTTTAATA | 0.252 |
| CTACCGAG | -0.0565 |
| ACATGCAG | -0.0406 |
| AACAGGTA | 0.0488 |
| AATAGGCC | -0.0433 |
| CTAGTGGC | -0.0105 |
| AGACAAAC | -0.0973 |
| CGTCGAAC | -0.0999 |
| AGACCCCG | -0.222 |
| CTGCACTC | 0.109 |
| GCCAGTCC | -0.0719 |
| AGAGCCAT | 0.15 |
| ATAAGCGC | 0.137 |
| ATGAGTCC | -0.129 |
| AAATTTGG | -0.0647 |
| CAGTTCCG | -0.148 |
| GACCCCTA | -0.252 |
| GATCGAGC | -0.0292 |
| AGCCCGAC | -0.175 |
| ACCTATCT | -0.171 |

— the supplement of paper PMC3334620
